Residue numbers refer to the chain shown, from its start. The list shows a part of the results.
T1: RBFOX1 RRM (Homo sapiens, UniProt Q9NWB1 109-208)
T1 sequence: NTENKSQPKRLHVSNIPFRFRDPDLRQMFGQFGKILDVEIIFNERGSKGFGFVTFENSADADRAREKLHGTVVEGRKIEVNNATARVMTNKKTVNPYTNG

B1: UAUCUGU (DNA:RNA)
RNA: GGGAGACCGGAAUUCAGAUUGUCCUAUCUGUUUAAAUCCCGUCGUAGCCACCA
DNA 1: CAATCTGAATTCCGGTCTCCC
DNA 2: TGGTGGCTACGACGGGATT
B2: GUUUGAU (DNA:RNA)
RNA: B1 RNA with U25G, A26U, C28U, U29G, G30A
DNA 1: CAATCTGAATTCCGGTCTCCC
DNA 2: TGGTGGCTACGACGGGATT
B3: AUUGCAG (DNA:RNA)
RNA: B1 RNA with U25A, A26U, C28G, U29C, G30A, U31G
DNA 1: CAATCTGAATTCCGGTCTCCC
DNA 2: TGGTGGCTACGACGGGATT
B4: UACUCCA (DNA:RNA)
RNA: B1 RNA with U27C, C28U, U29C, G30C, U31A
DNA 1: CAATCTGAATTCCGGTCTCCC
DNA 2: TGGTGGCTACGACGGGATT
B5: AUCCCCG (DNA:RNA)
RNA: B1 RNA with U25A, A26U, U27C, U29C, G30C, U31G
DNA 1: CAATCTGAATTCCGGTCTCCC
DNA 2: TGGTGGCTACGACGGGATT
B6: GUCUCUA (DNA:RNA)
RNA: GGGAGACCGGAAUUCAGAUUGUCCGUCUCUAUUAAAUCCCGUCGUAGCCACCA
DNA 1: CAATCTGAATTCCGGTCTCCC
DNA 2: TGGTGGCTACGACGGGATT
B7: AUUCUGG (DNA:RNA)
RNA: B1 RNA with U25A, A26U, U31G
DNA 1: CAATCTGAATTCCGGTCTCCC
DNA 2: TGGTGGCTACGACGGGATT
B8: CCUCAGU (DNA:RNA)
RNA: B1 RNA with U25C, A26C, U29A
DNA 1: CAATCTGAATTCCGGTCTCCC
DNA 2: TGGTGGCTACGACGGGATT
B9: AAUACAA (DNA:RNA)
RNA: B6 RNA with G25A, U26A, C27U, U28A, U30A
DNA 1: CAATCTGAATTCCGGTCTCCC
DNA 2: TGGTGGCTACGACGGGATT
B10: GUUUUCA (DNA:RNA)
RNA: B6 RNA with C27U, C29U, U30C
DNA 1: CAATCTGAATTCCGGTCTCCC
DNA 2: TGGTGGCTACGACGGGATT
B11: UAUCCUA (DNA:RNA)
RNA: B1 RNA with U29C, G30U, U31A
DNA 1: CAATCTGAATTCCGGTCTCCC
DNA 2: TGGTGGCTACGACGGGATT
B12: GAUACCC (DNA:RNA)
RNA: B6 RNA with U26A, C27U, U28A, U30C, A31C
DNA 1: CAATCTGAATTCCGGTCTCCC
DNA 2: TGGTGGCTACGACGGGATT
B13: UCGGCCC (DNA:RNA)
RNA: B6 RNA with G25U, U26C, C27G, U28G, U30C, A31C
DNA 1: CAATCTGAATTCCGGTCTCCC
DNA 2: TGGTGGCTACGACGGGATT
B14: CCUUGAU (DNA:RNA)
RNA: B1 RNA with U25C, A26C, C28U, U29G, G30A
DNA 1: CAATCTGAATTCCGGTCTCCC
DNA 2: TGGTGGCTACGACGGGATT
B15: AAGACAC (DNA:RNA)
RNA: B6 RNA with G25A, U26A, C27G, U28A, U30A, A31C
DNA 1: CAATCTGAATTCCGGTCTCCC
DNA 2: TGGTGGCTACGACGGGATT
B16: CUUAGUG (DNA:RNA)
RNA: B6 RNA with G25C, C27U, U28A, C29G, A31G
DNA 1: CAATCTGAATTCCGGTCTCCC
DNA 2: TGGTGGCTACGACGGGATT
B17: ACCAUCA (DNA:RNA)
RNA: B6 RNA with G25A, U26C, U28A, C29U, U30C
DNA 1: CAATCTGAATTCCGGTCTCCC
DNA 2: TGGTGGCTACGACGGGATT
B18: GUCAUCC (DNA:RNA)
RNA: B6 RNA with U28A, C29U, U30C, A31C
DNA 1: CAATCTGAATTCCGGTCTCCC
DNA 2: TGGTGGCTACGACGGGATT
B19: AACGGUU (DNA:RNA)
RNA: B6 RNA with G25A, U26A, U28G, C29G, A31U
DNA 1: CAATCTGAATTCCGGTCTCCC
DNA 2: TGGTGGCTACGACGGGATT
B20: UGGCGCG (DNA:RNA)
RNA: B1 RNA with A26G, U27G, U29G, G30C, U31G
DNA 1: CAATCTGAATTCCGGTCTCCC
DNA 2: TGGTGGCTACGACGGGATT

Each binder was assayed against T1, RBFOX1 RRM (assay: EMSA; HiTS-Eq, 1 nM pool, 10 min; buffer printed only for the single-RNA assays: 10 mM Tris pH 7.5, 150 mM NaCl, 3.4 mM EDTA, 0.001% NP-40, 30 C). Conditions: tags: His6 N-terminal (pET28a); label: 5' 32P.
Procedure, shortened: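 Purified RbFox RRM (wild type or mutant) was equilibrated for 10 min in 50 µL with 1 nM of a 5′-radiolabelled pool of RNA with 7 randomized nucleotides, its flanks annealed to DNA oligonucleotides, across increasing protein concentrations. Free RNA was separated by 8% native PAGE, excised, reverse-transcribed, PCR-barcoded and sequenced on an Illumina HiSeq 2500. Relative association constants came from read-count changes of each variant against the control reaction, normalised to the cognate motif.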
With B1 the binding signal was 0.0154 KA relative to UGCAUGU. For B2, the binding signal was 0.0191 KA relative to UGCAUGU. In the case of B3, the binding signal is reported as 0.013 KA relative to UGCAUGU. For B4, the binding signal was 0.0027 KA relative to UGCAUGU. B5 was tested, and the binding signal was 0.00284 KA relative to UGCAUGU. B6 was tested, and the binding signal was 0.00775 KA relative to UGCAUGU. For B7, the binding signal was 0.0124 KA relative to UGCAUGU. In the case of B8, the binding signal is reported as 0.0083 KA relative to UGCAUGU. For B9, the binding signal was 0.00311 KA relative to UGCAUGU. B10 was tested, and the binding signal was 0.0141 KA relative to UGCAUGU. B11 was tested, and the binding signal was 0.00279 KA relative to UGCAUGU. B12 was tested, and the binding signal was 0.0101 KA relative to UGCAUGU. B13 was tested, and the binding signal was 0.0157 KA relative to UGCAUGU. With B14 the binding signal was 0.00825 KA relative to UGCAUGU. For B15, the binding signal was 0.000216 KA relative to UGCAUGU. In the case of B16, the binding signal is reported as 0.0161 KA relative to UGCAUGU. With B17 the binding signal was 0.00181 KA relative to UGCAUGU. B18 was tested, and the binding signal was 0.00874 KA relative to UGCAUGU. In the case of B19, the binding signal is reported as 0.00768 KA relative to UGCAUGU. In the case of B20, the binding signal is reported as 0.0253 KA relative to UGCAUGU.

Reference: publication PMC9911399, “Two distinct binding modes provide the RNA-binding protein RbFox with extraordinary sequence specificity”
